# In publication PMC4336329 (PLoS ONE, 2015):
# Hit rate of the full screen: of about 310,000 compounds, about 14,000 (4.5%) showed an effect of 50% or more. Effects have a minus sign here. The list shows a part of the results.
# Target: human ether-à-go-go-related gene (hERG) potassium channel (human, UniProt Q12809)
# Assay: primary screen, population patch clamp on CHO cells stably expressing hERG
# 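Further: peak tail current of the secondary pulse compared with the same well before compound.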
# Sequence of human ether-à-go-go-related gene (hERG) potassium channel (Q12809 whole entry, looked up): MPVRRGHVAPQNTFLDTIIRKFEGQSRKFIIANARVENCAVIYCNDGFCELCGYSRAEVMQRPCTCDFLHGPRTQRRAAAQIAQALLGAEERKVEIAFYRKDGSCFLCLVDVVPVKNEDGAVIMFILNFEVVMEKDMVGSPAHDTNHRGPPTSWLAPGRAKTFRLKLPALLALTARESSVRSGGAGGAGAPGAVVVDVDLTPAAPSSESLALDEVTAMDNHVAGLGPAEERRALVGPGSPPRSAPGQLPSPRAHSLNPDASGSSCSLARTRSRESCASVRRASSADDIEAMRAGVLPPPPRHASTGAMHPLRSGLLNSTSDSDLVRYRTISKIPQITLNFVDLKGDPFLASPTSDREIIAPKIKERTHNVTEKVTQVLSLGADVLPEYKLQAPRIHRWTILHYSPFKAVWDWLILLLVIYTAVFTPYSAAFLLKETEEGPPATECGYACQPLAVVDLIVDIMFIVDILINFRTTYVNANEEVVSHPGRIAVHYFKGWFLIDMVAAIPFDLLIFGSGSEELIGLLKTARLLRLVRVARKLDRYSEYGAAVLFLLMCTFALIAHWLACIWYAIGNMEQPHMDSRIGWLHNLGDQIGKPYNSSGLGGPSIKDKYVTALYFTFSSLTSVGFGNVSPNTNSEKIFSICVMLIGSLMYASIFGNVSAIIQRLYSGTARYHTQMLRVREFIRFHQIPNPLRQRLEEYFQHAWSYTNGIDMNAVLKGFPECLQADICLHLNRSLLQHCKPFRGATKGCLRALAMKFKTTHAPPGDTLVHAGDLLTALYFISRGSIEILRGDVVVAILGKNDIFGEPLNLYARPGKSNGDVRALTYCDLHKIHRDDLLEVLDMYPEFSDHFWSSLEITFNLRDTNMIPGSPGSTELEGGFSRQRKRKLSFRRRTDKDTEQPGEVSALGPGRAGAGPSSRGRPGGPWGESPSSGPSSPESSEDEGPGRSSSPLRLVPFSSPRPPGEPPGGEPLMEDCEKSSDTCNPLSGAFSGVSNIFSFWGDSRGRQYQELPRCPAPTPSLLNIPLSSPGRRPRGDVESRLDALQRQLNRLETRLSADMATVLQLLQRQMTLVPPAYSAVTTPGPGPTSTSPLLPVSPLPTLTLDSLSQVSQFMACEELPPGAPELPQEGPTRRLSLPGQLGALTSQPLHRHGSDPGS
row,SMILES,"hERG current change (%, negative = inhibition) at 10uM [%]"
1,Cc1ccc(-c2nc(CN3CCCCC3c3cccc(F)c3)c(C)o2)o1 (stereo not shown),44.7
2,CN(C)c1ccc(/C=N/NC(=O)c2ccccc2O)o1,11
3,CCOc1ccc2nc(N/C(N)=N/C(=S)Nc3cccc(C)c3)nc(C)c2c1,7.56
4,CCN(CC)C(=O)C(=O)Nc1cc(C(F)(F)F)ccc1Cl,-3.18
5,COc1ccc(NC(=S)NCc2ccc(F)cc2)cc1,-0.243
6,Cc1ccc(OCC(=O)N2CCN(CC3CC4C=CC3C4)CC2)cc1.O=C(O)C(=O)O (stereo not shown),-24.3
7,O=C(CCc1nnc(CCCc2ccccc2)o1)N1CCCCCC1,26
8,C[C@@H](NC(=O)c1nc[nH]c1C(=O)N[C@H](C)c1ccccc1)c1ccccc1,27.3
9,CC(NC(=O)c1cc(COc2c(F)cccc2F)on1)c1cnn(-c2ccccc2)c1 (stereo not shown),11.7
10,CCOc1ccc(S(=O)(=O)Nc2ccccc2C(=O)N2CCCC2)cc1,1.41
11,Cc1ccc(CSCc2ccc(C(=O)NC3CC3)o2)cc1,-5.31
12,Oc1cc2c(cc1CN1CCN(c3cccc(C(F)(F)F)c3)CC1)CCC2,6.3
13,COC(=O)c1ccccc1NC(=O)C(C)n1nc(C)c2c(C)n(-c3ccccc3)nc2c1=O (stereo not shown),-50
14,O=C1[C@@H]2C(Cc3ccc(O)cc3)NC3(C(=O)Nc4ccc(F)cc43)[C@@H]2C(=O)N1c1ccc(F)cc1 (stereo partly shown),10.1
15,O=C1OC(Nc2ccc3c(c2)OCO3)c2ccccc21 (stereo not shown),-2.44
16,COc1ccc(S(=O)(=O)N2CCCC(C(=O)Nc3ccc4c(c3)OCCO4)C2)cc1 (stereo not shown),6.59
17,Cl.O=C(O)c1ccc(CNCc2cc(Cl)ccc2O)cc1,9.22
18,Cc1ccc(Oc2ncccc2NC(=O)CCCC(=O)O)c2c1CCC2,20.7
19,CCOC(=O)N1CCN(c2ccnc3cc(Cl)ccc23)CC1,-66
20,CN(c1ccccc1)S(=O)(=O)c1cccc(C(=O)NC2CC(C)(C)NC(C)(C)C2)c1,-31.3
21,CC(C(=O)Nc1ccc(F)c(F)c1F)N(C)CCOc1ccccc1 (stereo not shown),-2.28
22,Cc1ccnc(Nc2nc(-c3ccc(O)c(O)c3)cs2)c1,1.67

row,SMILES,"hERG current change (%, negative = inhibition) at 10uM [%]"
1,O=C1NC2(CCSC2)C(=O)N1CC(=O)N(Cc1ccccc1)C1CCS(=O)(=O)C1 (stereo not shown),7.27
2,O=C(O)c1ccc(-c2ncc[nH]2)cc1,15.6
3,O=C(NC1CCCC1)C1CCCN1S(=O)(=O)c1cccc2cccnc12 (stereo not shown),-0.366
4,Nc1cc(C(=O)O)ccc1N1CCCCC1,-1.25
5,CC1(C)Cc2c(sc(NC(=O)Cc3ccccc3)c2C#N)CO1,14.5
6,CCOC(=O)C1CCN(C(=O)c2cc3cc4ccc(OC)cc4nc3o2)CC1,-8.52
7,O=C(NCCS(=O)(=O)N1CCCCCC1)c1ccc(F)cc1,1
8,O=C(CNS(=O)(=O)c1ccccc1)NCC(=O)OCc1ccc(Cl)cc1,13.7
9,COc1ccccc1C(=O)Nc1nnc(SCC(=O)NC2CCCC2)s1,23.9
10,COc1ccc(Cn2c(SCc3cc(C)ccc3C)nc3cc(OC)c(OC)cc3c2=N)cc1,-4.93
11,Cc1nn(-c2ccccn2)c2c1-c1nc(N3CCOCC3)ncc1CC2,-15
12,O=C(CNc1ccc(C(F)(F)F)cc1)Nc1cccc(S(=O)(=O)N2CCCC2)c1,-5.15
13,COC(=O)C1=C(C(C)=O)C(c2ccc(C)cc2)n2nnnc2N1 (stereo not shown),-2.26
14,CCCCn1c(SCC(=O)N2CCCCC2)nc2cc(S(N)(=O)=O)ccc21,-7.5
15,COc1cccc(NC(=S)N(CCC(C)C)C2CCN(C(C)=O)CC2)c1,6.13
16,C/C(=N\NC(=O)Cc1ccc(F)cc1)c1ccc(F)cc1,-7.92
17,CCOC(=O)C(=CNc1cccc(C)n1)C(=O)OCC,-4.42
18,CC(=O)c1cccc(OCc2cc(C(=O)NCc3nc(C)c(C)s3)no2)c1,8.4
19,COc1ccc(S(=O)(=O)N2CCN(C(=O)c3cccc(Cl)c3)CC2)cc1,-38.2
20,CCCCn1c(SCc2nc(N)nc(Nc3ccccc3C)n2)nc2ccccc2c1=O,-1.63
21,COc1ccc(C(c2sc3nc(C)nn3c2O)N2CCc3ccccc3C2)cc1 (stereo not shown),7.26
22,O=C(NCCc1nc2ccccc2[nH]1)c1ccco1,2.94

row,SMILES,"hERG current change (%, negative = inhibition) at 10uM [%]"
1,CC(=O)C1=C(C)Nc2cc(C(F)(F)F)ccc2S1,7.12
2,CCN(CC)C(=O)CSc1nnc2nnc3cc(Cl)ccc3n12,-6.44
3,Fc1ccc(CSc2nnc(CN3CCOCC3)n2-c2ccccc2)c(Cl)c1,-24
4,COc1ccccc1C(C)NC(=O)C1CCN(S(=O)(=O)c2cccs2)CC1 (stereo not shown),-5.22
5,O=C(O)COc1ccc2c(c1)O/C(=C\c1ccco1)C2=O,20
6,CCOc1ccc(N2C(=O)/C(=C/c3ccccn3)SC2=S)cc1,-0.388
7,CCn1cc(C2C(C(=O)Nc3ccc(Br)cn3)=C(C)NC3=C2C(=O)CCC3)c(C)n1 (stereo not shown),-3.93
8,CCC(=O)Nc1ccc(C(=O)Nc2ccc3c(c2)OCO3)cc1,16.1
9,O=c1oc2ccccc2c2c1C(O)CO2 (stereo not shown),33.2
10,Cc1nc(C(=O)NNC(=O)c2c(-c3c(Cl)cccc3Cl)noc2C)cs1,-10.7
11,Cc1ccc2c(Cl)c(C(=O)Nc3cccnc3)sc2c1,14.2
12,Cc1ccc(CS(=O)Cc2ccc(C(=O)N3CCN(C4CCCCC4)CC3)o2)cc1 (stereo not shown),10
13,Cc1ccc(C)c(C(=O)c2c(C)nc3sccn23)c1,-20.8
14,CCOc1ccccc1N1CCN(C(=O)c2cn(CC3CCCCC3)nn2)CC1,-9.95
15,C#CCN1C(=O)C(O)(CC(=O)c2ccc(OC)c(OC)c2)c2ccccc21 (stereo not shown),-13.7
16,Cc1cc(C)n2nc(SCC(=O)N(Cc3ccccc3)C3CCS(=O)(=O)C3)nc2n1 (stereo not shown),24.2
17,COc1cccc(C=O)c1OCCCOc1cccc2cccnc12,-24.9
18,CSc1nnc(-c2ccc(C(F)(F)F)nc2C)o1,5.39
19,CCOc1ccccc1NC(=O)Cc1ccccc1OC,-12.1
20,CCOc1cccc(C2/C(=C(/O)c3ccc4c(c3)CC(C)O4)C(=O)C(=O)N2CCN2CCOCC2)c1 (stereo not shown),14.7
21,O=c1c2ccccc2nc(SCc2ccccc2F)n1C1CCCC1,0.737
22,Cc1ccc(Cn2c(=O)c3ccccc3n3c(SCC(=O)N4CCCCC4C)nnc23)cc1 (stereo not shown),-42.4

row,SMILES,"hERG current change (%, negative = inhibition) at 10uM [%]"
1,CCOc1ccc(OCC)c(NC(=O)C2COc3ccccc3O2)c1 (stereo not shown),10.7
2,O=C1N(c2ccccc2)C2CS(=O)(=O)CC2N1c1ccc(Cl)c(Cl)c1 (stereo not shown),7.77
3,Cc1ccc(CNC(=O)c2ccc(N3CCC4(CC3)CC(c3ccccc3)=NO4)c(NC(=O)c3ccco3)c2)cc1,6.09
4,C=CCc1ccc(OCC(O)CO)c(OC)c1 (stereo not shown),11.6
5,COc1ccccc1/C=C1\Cc2ccccc2C1=O,7.73
6,Nc1nonc1/C(=N/O)N1CCN(CCO)CC1,8.45
7,COC(=O)COc1cc2ccccc2cc1C(=O)Nc1ccccc1,0.225
8,Cc1ccc(Cn2ccc(NC(=O)c3cc(C)on3)n2)cc1,5.54
9,CCc1nnc(N/N=C/c2ccc(O)c(OC)c2)n1N,29.9
10,Cc1ccc2oc(=O)c3cc(C(=O)NCCCN4CCN(C)CC4)sc3c2c1,-5.62
11,COc1ccc(C(=O)Nc2ccccc2C(=O)Nc2cccnc2)cc1,-16
12,COc1ccc(/C=C/c2c([N+](=O)[O-])c(=O)n(C)c(=O)n2C)cc1O,-5.4
13,O=C(CCN1C(=O)/C(=C/c2ccccc2Cl)SC1=S)NC1=NCCS1,9.76
14,Cc1ccc(CNC(=O)CN2C(=O)CSc3ccc(S(=O)(=O)N4CCC(C)CC4)cc32)cc1,-27.4
15,Cc1ccc(C2=NOC(=O)/C2=C\c2ccc(C)o2)cc1,6.75
16,CC(=O)c1ccc(NC(=O)C2CCCN2S(=O)(=O)c2ccc(F)cc2)cc1 (stereo not shown),-16.6
17,Cc1ccc(NC(=O)C2C3CCCC2C3c2ccccc2)c(C)c1 (stereo not shown),9.74
18,CN1CCN(c2ccccc2NC(=O)c2cc3c(s2)-c2ccccc2OC3)CC1,-51.3
19,COc1ccc(C(CNC(=O)c2ccc(S(=O)(=O)Nc3ccccc3C)cc2)N2CCOCC2)cc1 (stereo not shown),-23.2
20,COC(=O)c1cc(/C=C/c2ccccc2)[nH]n1,-19.2
21,COc1ccc(C(=O)N=C2SC3CS(=O)(=O)CC3N2Cc2ccc(OC)c(OC)c2)cc1 (stereo not shown),-7.39
22,Cc1cc(C)n(-c2ccc(C(=O)Nc3nnc(C4CC4)s3)cc2)n1,-3.27
